# Laboratory results published in PubChem BioAssay AID1159614 (National Center for Advancing Translational Sciences (NCATS), 2016).
# Among all 45,000 compounds or so, about 65 (0.1%) were called active. Calls follow the shape of the dose curve; as a rule, active = well fitted activation curve with a large enough effect; inconclusive = small, poorly fitted or top-dose-only effect; inactive = no such curve, though single readings can be large or run the other way. This is one part of the list.
# Target: Galactocerebrosidase (Homo sapiens) (UniProt P54803)
# Sequence of UniProt P54803 (P54803 whole entry, looked up): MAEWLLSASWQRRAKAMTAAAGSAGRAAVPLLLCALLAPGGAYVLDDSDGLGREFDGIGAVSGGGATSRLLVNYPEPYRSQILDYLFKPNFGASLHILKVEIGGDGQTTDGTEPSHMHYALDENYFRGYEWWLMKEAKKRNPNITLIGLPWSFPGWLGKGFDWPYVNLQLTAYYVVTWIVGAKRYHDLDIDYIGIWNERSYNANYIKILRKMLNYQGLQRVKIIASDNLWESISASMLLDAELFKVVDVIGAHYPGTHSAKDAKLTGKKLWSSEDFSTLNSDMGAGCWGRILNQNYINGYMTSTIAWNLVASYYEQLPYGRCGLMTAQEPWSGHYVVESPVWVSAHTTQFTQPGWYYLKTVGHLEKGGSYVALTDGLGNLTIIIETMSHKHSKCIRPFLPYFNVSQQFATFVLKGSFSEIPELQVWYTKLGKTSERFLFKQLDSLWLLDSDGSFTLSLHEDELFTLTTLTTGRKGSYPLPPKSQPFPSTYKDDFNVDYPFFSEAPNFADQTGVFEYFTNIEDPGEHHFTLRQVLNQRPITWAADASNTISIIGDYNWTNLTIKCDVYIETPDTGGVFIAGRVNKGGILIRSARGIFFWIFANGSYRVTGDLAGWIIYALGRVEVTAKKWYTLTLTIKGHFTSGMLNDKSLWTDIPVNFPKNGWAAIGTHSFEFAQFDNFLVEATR
# Assay: A Novel Cell-Based Assay to Identify Small Molecules for B -Galactocerebrosidase; also: 0% is about no effect; nearly all actives have a fitted effect of over 65% in size
# Settings: 145M-Twi-hGALC-G270D cells (Twitcher mouse brain line with human GALC G270D), HMU-beta-Gal fluorescence, 48 h; series mostly up to 57.5 µM; activation: at the top concentration
# Outline: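 Fluorescence readout: HMU-β-gal cleavage by mutant GALC (0.1 mM final, citrate/phosphate pH 5.2 with 1 mg/mL taurocholate), stopped with carbonate/bicarbonate plus Triton X-100. Cells: murine Twitcher 145M-Twi expressing human G270D GALC; qHTS for activators.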
row,Compound,activation
1,Cc1nc(-c2cccc(F)c2)sc1CCNC(=O)c1ccc(F)c(F)c1,inactive: -12.5%
2,O=C(CSc1nccn1Cc1ccc(F)cc1)Nc1ccc2c(c1)OCO2,inactive: -14.9%
3,Cc1ccc(CNC(=O)CN2C(=O)C3(SCC(=O)N3c3cc(C)cc(C)c3)c3ccccc32)cc1 (stereo not given),inactive: -13.8%
4,COc1ccc(CNCCSc2nnnn2-c2ccccc2)c(OC)c1,inactive: -14.9%
5,Cc1ccc(-n2nc(C(=O)Nc3ccc(C)c(F)c3)c(=O)n(C)c2=O)cc1,inactive: -9.63%
6,O=C(NC1CCCC1)c1ccc2c(=O)n(Cc3ccccc3)c(SCc3ccccc3)nc2c1,inactive: -14.1%
7,COc1ccc(-c2nc3ccc(C)cn3c2Nc2ccc3c(c2)OCO3)cc1,inactive: -10.7%
8,Cc1ccc(CNC(=O)CCCCn2c(=O)c3ccccc3n(Cc3ccc(C)cc3)c2=O)cc1,inactive: -8.86%
9,CCCCSCCCNC(=O)c1cn(C)c2ccc(S(=O)(=O)N3CCCC3)cc2c1=O,inactive: -5.6%
10,Cc1cc(C)cc(OCC(=O)N(Cc2ccc(Cl)cc2)CC2CCCO2)c1 (stereo not given),inactive: -8.18%
11,CCOC(=O)c1c(S(=O)(=O)N2CCC(C(=O)NCc3ccccc3OC)CC2)c(C)n(C)c1C,inactive: -15.9%
12,CC1CCCCN1S(=O)(=O)c1cc2c3c(c1)CC(=O)N3CCC2 (stereo not given),inactive: -5.2%
13,Cc1ccc(Nc2nc(Nc3ccc(C)c(C)c3)nc(N3CCOCC3)n2)cc1C,inactive: -1.09%
14,COc1ccc(N2CCN(CCCNC(=O)c3cc(Nc4ccccc4OC)nc4ccccc34)CC2)cc1,inactive: 3.87%
15,Cc1ccc(-n2nnnc2CNC(=O)c2ccccc2)cc1C,inactive: -11%
16,COc1cc(C(=O)N2CCN(c3ccc(Nc4ccccc4)nn3)CC2)cc(OC)c1OC,inactive: -17.4%
17,COc1cccc(C(=O)Nc2ccccc2-c2nc3ccccc3s2)c1,inactive: -10.4%
18,CCc1cccc(C)c1NC(=O)CN1C(=O)C2(SCC(=O)N2c2cc(C)cc(C)c2)c2ccccc21 (stereo not given),inactive: -20.4%
19,CN(C)S(=O)(=O)c1ccc2c(c1)N(CC(=O)N1CCN(c3ccccc3F)CC1)CCS2,inactive: -15.4%
20,CC(C)Cc1ccc(CC(=O)O)cc1,inactive: 4.68%
21,Cc1ccc(-c2nc(CS(=O)(=O)CC(=O)NCc3ccccc3Cl)c(C)o2)cc1,inactive: -15.9%
22,Cc1cccc(CNC(=O)CN2C(=O)CCCc3ccccc32)c1,inactive: -7.29%
23,O=C(Cn1c(=O)n(Cc2ccc(C(=O)NCc3ccccc3Cl)cc2)c(=O)c2ccccc21)Nc1ccc(F)c(Cl)c1,inactive: -8.01%
24,COc1cc(C(=S)N2CCOCC2)cc(OC)c1OC,inactive: -12.2%

row,Compound,activation
1,COc1ccc(N2CC(NC(=O)COc3ccc4ccccc4c3)CC2=O)cc1 (stereo not given),inactive: 12.2%
2,O=C(Cn1c(-c2cccs2)cc2ccccc21)NCc1ccccc1Br,inactive: -6.22%
3,Cc1cccc(NC(=O)c2sc(-n3nc(C)c(CCC(C)C)c3C)nc2C)c1C,inactive: -10.9%
4,COc1cc(OC)cc(C(=O)Nc2cccc(-c3cn4cccnc4n3)c2)c1,inactive: -11.2%
5,O=S(=O)(c1ccc2[nH]c3c(c2c1)CCCCC3)N1CCN(c2cccc(Cl)c2)CC1,inactive: -18.9%
6,Cc1ccccc1CNC(=O)c1sc2ncnc(N(C)C3CCCCC3)c2c1C,inactive: -8.28%
7,NC(N)=NCCC[C@H](N)C(=O)O,inactive: -25.1% [at 5.77 µM]
8,Cc1oc(-c2cccc(Cl)c2)nc1CN1CCCC(C(=O)NCc2ccc(Cl)cc2)C1 (stereo not given),inactive: -19.5%
9,CC1=C(C(=O)Nc2cccc(C(F)(F)F)c2)C2(CCCCC2)OC1=O,inactive: -17.6%
10,O=c1c2cc3c(nc2ncn1Cc1ccc(Cl)cc1)CCCC3,inactive: -25.6%
11,CCOC(=O)C1CCN(c2c(C(=O)c3ccc(C)cc3)cnc3ccc(F)cc23)CC1,inactive: -13.4%
12,COc1ccc(NC(=O)CN2C(=O)c3ccccc3Sc3ccc(C(=O)N4CCOCC4)cc32)c(OC)c1,inactive: -3.47%
13,Cc1nc2ncnn2c(C)c1CCC(=O)N1CCN(c2cccc(Cl)c2)CC1,inactive: -13.6%
14,CCOC(=O)c1cccc(NS(=O)(=O)c2cc3[nH]c(=O)c(=O)[nH]c3cc2C)c1,inactive: -7.48%
15,CC1CCC2(CC1)N=C(c1ccccc1)C(=O)N2CC(=O)Nc1ccc(F)c(Cl)c1 (stereo not given),inactive: -1.67%
16,COc1cccc(CNC(=O)COCc2cc(-c3ccc4c(c3)OCO4)on2)c1,inactive: -16.1%
17,COc1cccc(CNC(=O)c2ccc3c(c2)nc2n3CCCCC2)c1OC,inactive: -13.2%
18,CCc1ccc(NC(=O)c2nnn(Cc3cccc(C(F)(F)F)c3)c2N)cc1,inactive: -21%
19,COc1cc(C(=O)OCc2cc(=O)n3nc(C(C)C)sc3n2)cc(OC)c1OC,inactive: -9.33%
20,CCOc1ccccc1NC(=O)CN1CCCN(Cc2cccc(Cl)c2)S1(=O)=O,inactive: -8.94%
21,CCn1c(CN2CCOCC2)nc2cc(NC(=O)c3ccc([N+](=O)[O-])cc3)ccc21,inactive: -16.5%
22,CCOc1ccc(-c2nc(SCC(=O)NCCCOC)c(-c3ccccc3)[nH]2)cc1,inactive: -16.4%
23,Cc1c(C(=O)N(Cc2ccc(Cl)cc2)CC2CCCO2)oc2ccc(F)cc12 (stereo not given),inactive: -10.8%
24,COc1ccccc1CNC(=O)CSc1ncc2c(n1)-c1cc(Cl)ccc1N(Cc1ccccc1)S2(=O)=O,inactive: -11.3%

row,Compound,activation
1,CCc1ccc(NC(=O)C2=CC(c3ccc4c(c3)OCO4)=NS(=O)(=O)N2C)cc1,inactive: -9.46%
2,COc1ccc(NC(=O)Nc2c[nH]c(=O)[nH]c2=O)c(OC)c1,inactive: -6.98%
3,Cc1cccc(-n2c(C)nc3cc(C(=O)NC4CCCCCC4)ccc32)c1,inactive: -10.1%
4,O=C(CS(=O)(=O)c1cccc2nsnc12)Nc1cc(F)ccc1F,inactive: -21.2%
5,O=C(Cc1ccccc1F)N1CCC(c2nc3c(nnn3Cc3ccc(F)cc3)c(=O)[nH]2)CC1,inactive: -13.2%
6,COc1ccccc1Oc1c(NS(=O)(=O)c2ccc(C(C)(C)C)cc2)nc(-c2ncccn2)nc1OCCO,inactive: -12.4%
7,CSc1ccc(CC2C(=O)Nc3ccccc32)cc1 (stereo not given),inactive: -6.58%
8,O=C(CSCc1cc(=O)c2cc(F)ccc2[nH]1)Nc1ccccc1Cl,inactive: -11.6%
9,COC(=O)c1cc2oc3ccccc3c2n1Cc1nc(-c2ccccc2C)oc1C,inactive: 3.1%
10,CCc1ccccc1NC(=O)CSc1nnc2ccc3ccccc3n12,inactive: -9.17%
11,Cc1cccc(N2CCN(S(=O)(=O)c3cc(C(=O)Nc4ccccc4Cl)ccc3F)CC2)c1C,inactive: -9.42%
12,Cc1ccc(NC(=O)[C@@H](c2ccccc2)N2Cc3ccccc3C2=O)cc1,inactive: -11.6%
13,CCC(C)NC(=O)CCc1c(C)nc2nc(-c3cc(OC)cc(OC)c3)nn2c1C (stereo not given),inactive: -16.3%
14,CC(C)(C)OC(=O)N1CCC(c2c(C(=O)NCCN3CCC(Cc4ccccc4)CC3)cnn2-c2ccc(F)cc2)CC1,inactive: -8.98%
15,Cc1ccc2[nH]c(CSc3nnc(NC(=O)c4ccc(Cl)cc4)s3)cc(=O)c2c1,inactive: -13.7%
16,Brc1ccc(-n2nc(-c3ccccc3)c3cnc4cc5c(cc4c32)OCO5)cc1,inactive: -1.23%
17,COc1ccc(OC)c(CCNc2nc3ccccc3c3nc(-c4cccnc4)nn23)c1,inactive: 5.94%
18,CCc1ccc(OCC2c3cc(OC)c(OC)cc3CCN2C(=O)COc2ccccc2)cc1 (stereo not given),inactive: -22.5%
19,CCCN(C(=O)c1coc(=O)c2ccccc12)c1ccccc1C,inactive: -18.1%
20,Cc1ccc(CCNC(=O)C2CCN(Cc3nc(-c4ccccc4C)oc3C)CC2)cc1,inactive: 8.35%
21,Cc1cc(S(=O)(=O)C(CNC(=O)COc2ccc(Cl)cc2)c2cccs2)ccc1F (stereo not given),inactive: 9.92%
22,Cc1cc(=O)[nH]c(=S)[nH]1,inactive: -12.5%
23,CCCN(CCC)C(=O)c1c2c(nc3ccccc13)C(=O)N(C1CCCCC1)C2,inactive: -20.8%
24,COc1cccc(NC(=O)C(Cc2ccccc2)NS(=O)(=O)c2ccc3c(c2)oc(=O)n3C)c1 (stereo not given),inactive: -3.14%

row,Compound,activation
1,Cc1coc2cc3oc(=O)c(CC(=O)NCCc4ccccc4)c(C)c3cc12,inactive: -9.41%
2,CCOc1ccc(CCNC(=O)CCc2cn(Cc3ccc(F)cc3)c3ccccc23)cc1,inactive: -10.9%
3,COc1ccc(-n2nc(C(=O)Nc3cccc(C)n3)c3c4ccccc4n(C)c3c2=O)cc1Cl,inactive: 3.62%
4,CCn1c(=O)cc(OCC(=O)Nc2cc(Cl)c(OC)cc2OC)c2ccccc21,inactive: -16.3%
5,CCOc1ccc(CCNC(=O)c2cc3c(-c4ccc(OC)c(OC)c4)nn(C)c3s2)cc1OCC,inactive: -4.66%
6,CCOc1ccc(NC(=O)Cn2cc(C(=O)c3ccco3)c3ccccc32)cc1,inactive: -15.4%
7,Cc1ccc(N2C(=O)CSC23C(=O)N(CC(=O)Nc2ccc(C(C)C)cc2)c2ccccc23)cc1C (stereo not given),inactive: -16.4%
8,COc1ccc(OC)c(NC(=O)c2cnn(-c3ccc(C)cc3)c2C2CCNCC2)c1,inactive: -23.2%
9,CCc1ccccc1N(C)C(=O)c1cc2c(=O)oc3ccccc3c2s1,inactive: -9.09%
10,CC(C)n1c(=N)c(C(=O)NCc2ccccc2)cc2c(=O)n3ccccc3nc21,inactive: -19.4%
11,COc1cc(NC(=O)c2cc(S(=O)(=O)N3CCc4ccccc43)cn2C)cc(OC)c1OC,inactive: -12.6%
12,CC(=O)[C@H]1CC[C@H]2[C@@H]3C=CC4=CC(=O)CC[C@@]4(C)[C@@H]3CC[C@]12C,inactive: -4.62%
13,Cc1ccc(C)c(CN2C(=O)c3ccccc3S(=O)(=O)c3ccc(C(=O)N4CCCCC4)cc32)c1,inactive: -6.09%
14,O=C(COc1ccccc1[N+](=O)[O-])N(Cc1ccco1)c1ccccn1,inactive: -16.6%
15,COc1cc2c(=O)n(CCc3ccccc3)c(=O)n(CC(=O)Nc3ccccc3)c2cc1OC,inactive: -21.4%
16,COc1ccc(C)cc1NC(=O)N1CCCn2nc(C)cc21,inactive: -7.18%
17,O=C(C1CCC1)N1CCc2cc(S(=O)(=O)NCc3ccc(F)cc3)ccc21,inactive: -10.2%
18,CC(C)CC(=O)Nc1c(C(=O)N2CCN(c3ccccc3)CC2)oc2ccccc12,inactive: -7.67%
19,COc1ccc(C(=O)Cn2c(=O)c(-c3cc(C)ccc3NC(C)=O)nc3ccccc32)cc1,inactive: -1.17%
20,CC(=O)c1cc2c(cc1N/C(=N/S(=O)(=O)c1ccc(Br)cc1)c1ccccc1)OCO2,inactive: -15.7%
21,O=C(Cn1c(=O)n(CC2CCC(C(=O)NCCc3ccccc3)CC2)c(=O)c2ccccc21)Nc1cccc(F)c1 (stereo not given),inactive: 2.9%
22,COc1ccc(C2C=C(c3ccccc3)Nc3nc(NS(=O)(=O)c4ccc(Cl)cc4)nn32)cc1 (stereo not given),inactive: 0.542%
23,COC(=O)c1ccccc1NC(=O)N1CCc2c(sc3c2CCCC3)C1c1ccc(F)cc1 (stereo not given),inactive: -22.9%
